# Reference: article PMC4336329 (PLoS ONE, 2015)
# About 14,000 (4.5%) of roughly 310,000 compounds showed an effect of 50% or more. Effects have a minus sign here. This is one part of the list.
# Target: human ether-à-go-go-related gene (hERG) potassium channel (human, UniProt Q12809)
# Assay: primary screen, population patch clamp on CHO cells stably expressing hERG
# 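Further: peak tail current of the secondary pulse compared with the same well before compound.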
# human ether-à-go-go-related gene (hERG) potassium channel, sequence (Q12809 whole entry, looked up): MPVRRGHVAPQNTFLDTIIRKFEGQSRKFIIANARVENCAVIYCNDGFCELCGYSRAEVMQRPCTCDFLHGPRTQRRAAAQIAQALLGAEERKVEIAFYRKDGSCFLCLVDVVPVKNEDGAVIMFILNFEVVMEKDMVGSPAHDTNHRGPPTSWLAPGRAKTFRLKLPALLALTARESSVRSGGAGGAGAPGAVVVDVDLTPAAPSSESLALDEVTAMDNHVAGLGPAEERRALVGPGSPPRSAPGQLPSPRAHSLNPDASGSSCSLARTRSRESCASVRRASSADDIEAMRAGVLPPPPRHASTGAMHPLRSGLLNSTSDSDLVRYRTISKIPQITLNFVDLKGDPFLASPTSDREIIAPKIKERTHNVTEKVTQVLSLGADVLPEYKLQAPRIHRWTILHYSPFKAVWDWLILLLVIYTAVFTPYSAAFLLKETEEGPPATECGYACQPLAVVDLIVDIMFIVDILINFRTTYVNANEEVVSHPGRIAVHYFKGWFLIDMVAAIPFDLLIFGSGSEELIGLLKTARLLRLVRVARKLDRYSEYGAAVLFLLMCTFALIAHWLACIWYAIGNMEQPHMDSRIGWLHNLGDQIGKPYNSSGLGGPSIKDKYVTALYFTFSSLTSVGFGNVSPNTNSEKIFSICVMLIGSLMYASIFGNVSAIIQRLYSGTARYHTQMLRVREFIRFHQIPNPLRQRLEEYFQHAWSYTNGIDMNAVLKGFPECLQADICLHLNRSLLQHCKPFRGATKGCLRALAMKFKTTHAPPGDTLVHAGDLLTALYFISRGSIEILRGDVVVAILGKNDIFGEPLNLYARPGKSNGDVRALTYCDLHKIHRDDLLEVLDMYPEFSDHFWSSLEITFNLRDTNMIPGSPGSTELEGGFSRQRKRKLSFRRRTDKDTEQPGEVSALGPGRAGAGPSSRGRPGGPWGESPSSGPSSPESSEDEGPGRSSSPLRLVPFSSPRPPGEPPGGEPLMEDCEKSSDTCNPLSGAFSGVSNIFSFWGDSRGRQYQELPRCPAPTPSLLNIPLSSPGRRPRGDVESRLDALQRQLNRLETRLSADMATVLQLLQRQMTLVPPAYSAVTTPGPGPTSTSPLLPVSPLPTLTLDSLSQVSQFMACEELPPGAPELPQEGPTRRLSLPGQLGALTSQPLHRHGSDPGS
row,SMILES,"hERG current change (%, negative = inhibition) at 10uM"
1,O=C(/C=C/c1cccc(O)c1)c1cccnc1,3.05%
2,Cc1ccc(CNS(=O)(=O)NCc2ccccc2F)cc1,3.08%
3,Clc1cccc2sc(-c3nnc(-c4ccccc4)o3)c(Cl)c12,-2.74%
4,CCOC(=O)[C@H]1[C@H]2COc3cc(OC)ccc3[C@@H]2N2C(=O)CN(CC3CCCO3)C(=O)[C@@]12C (stereo partly shown),13.8%
5,Cc1ccnn1-c1ccc(C(=O)NCC(c2ccco2)N2CCCC2)cc1 (stereo not shown),-16.5%
6,CCCN(CC(=O)Nc1ccccc1C)C(=O)C1CCN(c2ncnc3sc(C)c(C)c23)CC1,-76.2%
7,C/C(=N/NS(=O)(=O)c1ccc(Cl)cc1)c1ccc2c(c1)OCO2,-12.9%
8,COc1ccc(NC(=O)CN(C)C(=O)Cc2coc3cc(C)c(C)cc23)cc1,-7.63%
9,CCOc1ccc2nc(Nc3nc4ccc(NC(C)=O)cc4s3)sc2c1,7.77%
10,CC1=C(C(=O)OCc2ccccc2)C(c2ccc(Cl)cc2)NC(=O)N1CCCC(=O)O (stereo not shown),0.856%
11,O=C(NCc1ccco1)c1cccc(F)c1,6.59%
12,CCOc1cccc2sc(N(CCCN(C)C)C(=O)c3ccc(S(=O)(=O)N4CCCCCC4)cc3)nc12.Cl,7.67%
13,O=C(CSc1nnc(-c2c[nH]c3ccccc23)o1)N(Cc1ccccc1)c1ccc(F)cc1,14.1%
14,NC(=S)C(c1ccccc1)c1ncc(C(F)(F)F)cc1Cl (stereo not shown),17.5%
15,[Br-].c1ccc(Cc2cc[n+](Cc3ccccn3)cc2)cc1,1.63%
16,COCCn1cc(C(=O)NCCCOC(C)C)c2c3ccccc3n(C)c2c1=O,2.69%
17,O=C(NC1CCN(S(=O)(=O)c2ccc(Cl)c(F)c2)CC1)c1cccnc1,-19.2%
18,COCc1cc(=O)[nH]c(-c2ccccc2)n1,8.53%
19,O=C(NCc1ccco1)c1ccccc1-c1nc(-c2ccccc2)no1,2.66%
20,O=C(O)c1cccc(COCC(F)(F)C(F)F)c1,3.02%
21,Nc1nc(N)nc(-c2ccccc2-c2nc(N)nc(N)n2)n1,32.5%
22,COc1cc(CNC(=O)OCC(C)C)cc(OC)c1OC,4.14%

row,SMILES,"hERG current change (%, negative = inhibition) at 10uM"
1,COc1ccc(NC(=O)C2CCCN2S(=O)(=O)c2cccc3nsnc23)c(OC)c1 (stereo not shown),-9.33%
2,Cc1csc(SCC(=O)NC2CCCCC2)n1,-1.79%
3,O=C(CC1SC(N2CCOCC2)=NC1=O)Nc1cc([N+](=O)[O-])ccc1Cl (stereo not shown),6.56%
4,CCCCN=C1NC(=O)C(CC(=O)Nc2ccc(Cl)cc2)S1 (stereo not shown),-9.82%
5,CC(=O)Nc1ccc(NC(=O)CSc2ccc(-c3cccnc3)nn2)cc1,24.7%
6,Cc1cnc(C(=O)OCC(=O)Nc2ccc(Cl)cn2)cn1,8.13%
7,N=C(CC1CC(=O)NC(=O)C1)C1=C(O)CCCC1=O,3.13%
8,CCN(CC)c1ccc(CC(=O)NC(C)Cc2ccccc2)cc1 (stereo not shown),-0.0724%
9,COc1ccc(CCNC(=O)CN(c2ccccc2OC)S(=O)(=O)c2ccc(C)cc2)cc1,-13.1%
10,O=C(NCc1cccnc1)c1ccccc1NS(=O)(=O)c1ccc(F)cc1,2.64%
11,CC1(C)CC(=O)C(C=NCCN2CCN(C3CC(=O)N(c4ccc(F)cc4)C3=O)CC2)=C(O)C1 (stereo not shown),6.86%
12,CC(C)c1ccc(S(=O)(=O)c2n[nH]n3c2nc(=O)c2ccccc23)cc1,-16.7%
13,CC(=O)N1c2c(cc(Br)cc2S(=O)(=O)N2CCCCC2)CC1C (stereo not shown),-29.4%
14,CC(=O)Nc1sc2c(c1CN1CCN(c3ccccn3)CC1)CCCC2,-55.3%
15,Cn1cnnc1SCc1nnc(-c2ccccc2Br)o1,11.1%
16,CCOc1ccc(NS(=O)(=O)c2ccc3c(c2)oc(=O)n3C)cc1,26.1%
17,CC1(C)CC(=O)C(C=NCCN2CCN(CCc3ccccc3)CC2)=C(O)C1,-39.5%
18,CCN(CC)S(=O)(=O)c1cccc(C(=O)N/N=C/c2ccccc2OCC(=O)O)c1,13.7%
19,COc1ccccc1N1CCN(C2CCN(S(=O)(=O)c3ccc(NC(C)=O)cc3)CC2)CC1,0.727%
20,CN(C)C(=S)SSC(=S)N(C)C,17.2%
21,CCN1CCN(C(c2cccs2)C(C)NC(=O)c2cccc(OC)c2OC)CC1 (stereo not shown),-18%
22,CCNc1nc(CSc2ccccc2)nc2sc(C)c(C)c12,1.64%

row,SMILES,"hERG current change (%, negative = inhibition) at 10uM"
1,Oc1[nH]c2ccccc2c1OCc1ccncc1,8.82%
2,CCC(=O)Nc1ccc(S(=O)(=O)Nc2cccnc2)cc1,9.21%
3,Cl.O=C(NC1CCN(Cc2ccccc2)CC1)C12CC3CC(CC(C3)C1)C2,-22.7%
4,COC(=O)CN(Cc1ccccc1)S(=O)(=O)c1ccc(OC)c(OC)c1,-0.381%
5,COc1cc2c(cc1OC)C(C(=O)NCc1ccco1)C1c3ccccc3CCN1C2=O (stereo not shown),-10.3%
6,Cc1c(N(C)S(=O)(=O)c2cc(C(=O)Nc3ccccn3)ccc2Cl)c(=O)n(-c2ccccc2)n1C,20.8%
7,COc1ccc(/C=N/NC(=S)Nc2cccc(C(=O)O)c2)cc1OC,4.42%
8,COC(=O)c1sccc1NC(=O)c1ccccc1F,15.3%
9,COc1cc(N2C(=O)CC3(CCCC3)CC2=O)cc(OC)c1OC,4.04%
10,Cc1ccc(NC(=O)C2CC(=O)n3c(nc4ccccc43)N2)cc1Cl (stereo not shown),22.8%
11,COCc1cc(C)nc(Nc2cc(C)ccc2C)c1C#N,17%
12,CN1CCc2c(OCC(=O)N3N=C(c4cccs4)CC3c3ccc(F)cc3)cccc2C1=O (stereo not shown),-8.41%
13,Cc1ccc(NS(=O)(=O)c2cccc(C(=O)N3CCOCC3)c2)cc1,1.68%
14,C=CCNC(=O)c1ccccc1NC(=O)c1ccccc1N(C)S(C)(=O)=O,6.35%
15,OC(CNCc1ccccc1Cl)COc1ccc(F)cc1 (stereo not shown),-21.3%
16,CC(C)(C)OC(=O)N[C@@H](Cc1ccccc1)c1nnc(SCC(N)=O)o1,8.51%
17,C=C(C)COc1ccc2c3c(c(=O)oc2c1OCC(=C)C)CCC3,4.39%
18,Cn1c(=O)c2cc(S(=O)(=O)Nc3ccc4c(c3)OCO4)ccc2n(C)c1=O,-16%
19,Cc1ccc(-c2nc(N(C)C3CCN(C)CC3)c3ccccc3n2)cc1,-24.4%
20,CSc1nnc2c3cc(F)ccc3n(Cc3ccccc3)c2n1,13.6%
21,CSc1ccccc1NS(=O)(=O)c1cccc2nonc12,1.51%
22,Cc1nn(-c2ccccc2)nc1CNC(=O)C(C)Cc1ccccc1 (stereo not shown),16.8%

row,SMILES,"hERG current change (%, negative = inhibition) at 10uM"
1,Cc1cccc2cc(CN(CCCN3CCOCC3)Cc3nnnn3C(C)(C)C)c(=O)[nH]c12,-20.8%
2,Cc1cc(C)c2nc(NC(=O)C3CCCO3)sc2c1 (stereo not shown),-0.179%
3,O=C(Cn1c2[n+](c3ccc(C(F)(F)F)cc31)CCCCC2)Nc1ccccc1.[Cl-],12.4%
4,Cc1cc(NC(=O)CS(=O)(=O)c2ccc(Cl)cc2)no1,15.2%
5,Cl.OC(CNC1CCCC1)COc1c(F)cc(Br)cc1F (stereo not shown),-27.3%
6,Cc1ccc(NS(=O)(=O)c2cc(C(=O)N3CCc4ccccc4C3)ccc2Cl)cc1,8.92%
7,N#CC12CNCC1CN=N2 (stereo not shown),16.2%
8,CCCc1nnc(NC(=O)COc2ccc3c(c2)OCO3)s1,5.55%
9,CCOCCn1c(CN2CCC(Cc3ccccc3)CC2)nc2c1c(=O)n(C)c(=O)n2C,-47.2%
10,COc1ccccc1N(CC(=O)NCc1ccco1)S(C)(=O)=O,29.4%
11,NC(=O)c1cccc(S(=O)(=O)N2CCCCC2)c1,-4.67%
12,COc1ccc(NC(=O)c2ccco2)cc1NC(=O)c1ccc(C#N)cc1F,-10.6%
13,Cc1ccc(CN=c2c([N+](=O)[O-])nn(-c3cccc(Cl)c3)n2O)cc1,6.84%
14,O=C(CSc1nc2ncc(Cl)cc2[nH]1)c1ccc2c(c1)OCO2,7.87%
15,O=C(Nc1ccccc1O)c1ccc(NS(=O)(=O)c2cccc3cccnc23)cc1,-9.67%
16,COc1cccc(OC)c1C(=O)Nc1ccccc1Sc1ccccc1,-13.3%
17,CC(=O)c1nccs1,11.9%
18,COc1nc(N(C)S(=O)(=O)c2ccc(C)cc2)nc(C)c1Cl,5.9%
19,Cc1cc(C(=O)CN2C(=O)NC3(CCCc4sccc43)C2=O)c(C)n1-c1ccc(Cl)cc1 (stereo not shown),3.87%
20,CCOc1ccc(N2CC(C(=O)NC3CCCCCC3)CC2=O)cc1 (stereo not shown),-15.4%
21,OC[C@H]1O[C@@H](n2cnc3cc(Cl)c(Cl)cc32)[C@H](O)[C@@H]1O,3.14%
22,O=C1CSC(c2ccccc2)N1Nc1nc(N2CCOCC2)nc(N2CCOCC2)n1 (stereo not shown),-0.218%
